The values below come from publication PMC4336329 (PLoS ONE, 2015).

The whole screen tested about 310,000 compounds, of which about 2,200 (0.71%) showed an effect of 50% or more. Effects have a minus sign here. The list shows a part of the results.

In this assay the target is human ether-à-go-go-related gene (hERG) potassium channel (human, UniProt Q12809). As to the kind of experiment: primary screen, population patch clamp on CHO cells stably expressing hERG.
Sequence of human ether-à-go-go-related gene (hERG) potassium channel (Q12809 whole entry, looked up): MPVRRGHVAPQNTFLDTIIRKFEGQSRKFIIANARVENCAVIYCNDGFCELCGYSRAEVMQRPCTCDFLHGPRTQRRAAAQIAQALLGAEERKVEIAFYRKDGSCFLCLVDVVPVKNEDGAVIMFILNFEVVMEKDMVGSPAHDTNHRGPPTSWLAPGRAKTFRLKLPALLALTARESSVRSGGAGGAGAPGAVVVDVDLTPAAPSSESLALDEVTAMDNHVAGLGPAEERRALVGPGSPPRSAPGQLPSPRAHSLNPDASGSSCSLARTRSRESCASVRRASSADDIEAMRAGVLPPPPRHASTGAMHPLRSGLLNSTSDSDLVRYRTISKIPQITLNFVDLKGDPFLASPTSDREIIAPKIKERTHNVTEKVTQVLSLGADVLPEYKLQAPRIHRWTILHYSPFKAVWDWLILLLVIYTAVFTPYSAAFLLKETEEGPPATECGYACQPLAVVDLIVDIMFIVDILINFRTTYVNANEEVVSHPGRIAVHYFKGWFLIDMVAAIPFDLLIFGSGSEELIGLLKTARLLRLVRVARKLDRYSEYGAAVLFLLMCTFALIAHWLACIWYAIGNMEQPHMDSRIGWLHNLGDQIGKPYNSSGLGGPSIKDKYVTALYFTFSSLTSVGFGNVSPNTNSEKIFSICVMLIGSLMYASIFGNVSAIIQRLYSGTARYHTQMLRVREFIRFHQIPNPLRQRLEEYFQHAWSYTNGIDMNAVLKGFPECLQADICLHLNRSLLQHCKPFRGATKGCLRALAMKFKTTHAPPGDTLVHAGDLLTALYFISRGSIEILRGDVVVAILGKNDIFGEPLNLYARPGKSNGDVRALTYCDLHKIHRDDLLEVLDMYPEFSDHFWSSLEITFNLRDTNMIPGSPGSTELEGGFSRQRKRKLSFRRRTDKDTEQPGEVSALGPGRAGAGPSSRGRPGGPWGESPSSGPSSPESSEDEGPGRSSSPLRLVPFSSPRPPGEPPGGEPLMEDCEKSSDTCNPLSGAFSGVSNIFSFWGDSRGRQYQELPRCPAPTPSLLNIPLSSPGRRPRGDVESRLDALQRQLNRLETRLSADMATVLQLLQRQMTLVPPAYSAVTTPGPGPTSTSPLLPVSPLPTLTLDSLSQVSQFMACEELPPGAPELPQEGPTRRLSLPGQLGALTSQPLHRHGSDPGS
As for `Nc1c(N=Nc2cccc(Cl)c2)c(=O)[nH]n1-c1ccccc1`, the “hERG current change (%, negative = inhibition) at 1uM” value stood at 1.75%. For `COc1ccc(C(=O)Nc2c(N)nc(SCC(=O)N3CCCCCC3)[nH]c2=O)cc1OC` the value was 10%.

In the case of `CSc1ccc(CN(C)C(=O)COc2ccc(C(=O)c3ccccc3)cc2)cc1`, the “hERG current change (%, negative = inhibition) at 1uM” value was 14.2%. For `Cn1cc(S(=O)(=O)Nc2ccc(F)c(Cl)c2)c(=O)n(C)c1=O` the value was 9.97%; for `CC(=O)Nc1ccc(/C=N/NC(=O)c2cccs2)cc1`, 9.84%. As for `CNC(=S)/N=C(\Nc1ccc(C)cc1)c1ccccc1`, the figure is 12.4%; as for `CCOC(=O)Cc1nnc(NC(=O)CSc2ccc(Cl)cc2)s1`, 9.14%; as for `Cc1cccc(NC(=O)CN2CCN(CC(=O)Nc3ccc(-c4ccccc4)cc3)CC2)c1C`, 7.53%. As to `COC(=O)c1c(C(=O)c2ccc(Br)cc2)n(C)c2ccccc12`, the “hERG current change (%, negative = inhibition) at 1uM” value amounted to 2.31%. As for `COC(=O)c1cc(C(=O)NCC2CCCCC2)cc([N+](=O)[O-])c1`, the figure is 6.32%; as for `COc1cc2[nH]c(=O)n(CCC(=O)N3CC=C(c4ccccc4)CC3)c(=O)c2cc1OC`, 0.309%; as for `COc1ccc(OC)c(C(C)NS(=O)(=O)c2cccs2)c1` (stereo not drawn), -2.19%.

With `COc1ccc(NC(=O)N2CCCc3cccc(C)c32)cc1`, the “hERG current change (%, negative = inhibition) at 1uM” value was 1.06%. On to `CC(C)CC(=O)N/C(N)=N/c1nc2ccccc2s1`, for which the “hERG current change (%, negative = inhibition) at 1uM” value stood at 13.4%. For `O=C(Nc1nnc(CCc2ccccc2)s1)c1ccccc1` the value was 11.9%; for `Cc1ccc(C2NC(=O)c3c(sc(C)c3C)N2)c(O)c1` (stereo not drawn), 3.84%. Turning to `CC(C)[C@H](NC(=O)OC(C)(C)C)C(=O)N/N=C/c1ccc2nccnc2c1`, the “hERG current change (%, negative = inhibition) at 1uM” value is reported as 5.51%. For `CCOc1ccc(/C=C2\SC(=S)N(CCCC(=O)NCCCN3CCOCC3)C2=O)cc1` the value was 14.5%; for `O=C(COC(=O)c1oc2ccccc2c1COc1ccccc1)NCCN1C(=O)CSC1=O`, -8.43%. As for `O=C1CSC(c2cccc([N+](=O)[O-])c2)N1c1ccccc1F` (stereo not drawn), the figure is 1.45%.

As for `O=S(=O)(NCC1CCCO1)c1cc(Br)c(Br)s1` (stereo not drawn), the “hERG current change (%, negative = inhibition) at 1uM” value stood at 0.898%. Regarding `CC1(C)Cc2c(c(N3CCOCC3)nc3sc(C(N)=O)c(N)c23)CO1`, the “hERG current change (%, negative = inhibition) at 1uM” value is on record as 2.15%. As for `COc1ccc(C2C=C(c3ccc(F)cc3)NC(=S)N2)cc1OC` (stereo not drawn), the figure is 5.17%.

Consider `COCCNC(=O)c1c(CSc2ccccc2)noc1C(=O)NCc1ccccc1`, for which the “hERG current change (%, negative = inhibition) at 1uM” value was found to be 11.3%.
